Experiment: Protonation constants (log K) of ligands by UV-visible spectrophotometric titration vs. pH
Format: physicochemical
Details: Solvent MeOH/H2O (80/20 w/w)
Description: For ligand 10a, protonation constants of the ligand were studied in both media while complexation studies were carried out only in the mixed solvent for solubility reasons.

| Structure (SMILES) | log K LH2 | log K LH3 |
| --- | --- | --- |
| O=c1cncc(-c2ccccc2)n1O [Ligand 10a, 1-Hydroxy-6-phenylpyrazin-2(1H)-one] | ∼−0.9 |  |
| Cc1nc(Cc2ccccc2)c(=O)n(O)c1C [Ligand 6c, 1-Hydroxy-3-benzyl-5,6-dimethylpyrazin-2(1H)-one] | 0.66(1) |  |
| Cc1nc(Cc2ccc(O)cc2)c(=O)n(O)c1C [Ligand 6d, 1-Hydroxy-3-(4-hydroxybenzyl)-5,6-dimethylpyrazin-2(1H)-one] | 5.96(1) | 0.94(1) |
